Laboratory results reported in publication PMC10904834 (Nature Communications, 2024).

Target: T1, BcATG4 (Botrytis cinerea, UniProt A6SDQ3)
T1 construct: gene atg4
Assay: in vitro cleavage of Citrine-BcATG8-ShR sensor, western blot
Conditions: RT, 10 min preincubation; weak effect

T1 sequence (A6SDQ3 whole entry): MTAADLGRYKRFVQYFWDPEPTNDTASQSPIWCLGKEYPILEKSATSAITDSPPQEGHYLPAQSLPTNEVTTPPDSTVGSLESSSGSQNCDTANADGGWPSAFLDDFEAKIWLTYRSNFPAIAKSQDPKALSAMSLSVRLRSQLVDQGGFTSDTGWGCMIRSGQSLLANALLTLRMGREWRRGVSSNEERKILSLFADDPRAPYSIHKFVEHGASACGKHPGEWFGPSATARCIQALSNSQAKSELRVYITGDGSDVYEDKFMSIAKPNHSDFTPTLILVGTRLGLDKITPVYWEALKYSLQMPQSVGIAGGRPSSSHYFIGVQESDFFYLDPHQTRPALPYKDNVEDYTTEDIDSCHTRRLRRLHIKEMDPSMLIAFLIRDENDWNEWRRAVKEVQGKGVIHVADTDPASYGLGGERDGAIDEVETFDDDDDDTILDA

Structure (SMILES)	in vitro cleavage of Citrine-BcATG8-ShR sensor, western blot
O=C1c2ccccc2C(=O)N1c1ccccc1 [PID, 2-phenyl-1H-isoindole-1,3(2H)-dione]	PID and PIO analogs of EB have weak effects on the cleavage
O=C1C(c2ccccc2)=Nc2ccccc21 [PIO, 2-phenyl-3H-indol-3-one]	PID and PIO analogs of EB have weak effects on the cleavage
